Results reported in PubChem BioAssay AID686979 (National Center for Advancing Translational Sciences (NCATS), 2013).
“And” between values parts separate entries of the source, which are not always exact repeats. Equal values may be shown once. Screen size: about 420,000 compounds; about 50,000 (12%) were called active. Inconclusive results, whose numbers are uncertain, are shown with a selection of clear calls. The call rests on the fitted dose curve; in most records, active means well fitted inhibition curve with a large enough effect; inconclusive means small, poorly fitted or top-dose-only effect; inactive means flat fitted curve, though single readings scatter. A potency beside an inconclusive call is a rough fit, not a confirmed value.

Assay: qHTS for Inhibitors of human tyrosyl-DNA phosphodiesterase 1 (TDP1): qHTS in cells in presence of CPT; further: nearly all actives have a fitted effect of over 55% in size
Conditions: chicken DT40 Tdp1-/-;hTDP1 cells + 20 nM CPT, ATP luminescence, 48 h; activity change, negative = growth inhibition: at 46.2 µM (top of the series) unless noted
In short: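 Chicken DT40 Tdp1-/- cells stably complemented with human TDP1 were seeded at 400 cells/well in medium containing 20 nM camptothecin, exposed to pin-transferred compounds, and grown at 37 °C for at least 48 hr. Viability was read as ATP luminescence.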
On the % scale 0 is the no-effect control and ±100 the full control effect; potency means the concentration at half of the fitted maximal effect; tags describe the fitted curve by direction and shape.

| SMILES | Potency | activity change, negative = growth inhibition |
| --- | --- | --- |
| CC1=CC(C)(C)NC(=S)N1c1ccc(N(C)C)cc1 | inactive | – |
| O=S(=O)(c1ccc2nc(SCc3cccc(Cl)c3)[nH]c2c1)N1CCOCC1 | inconclusive: 16.4 µM [inhibitor, single point] | – |
| CCCN(C(=O)CSCc1c(C)noc1C)c1c(N)n(Cc2ccccc2)c(=O)[nH]c1=O | inactive | – |
| Cc1ccc(CNC(=O)C2CCCN2C(=O)Nc2ccc(F)cc2)cc1 (stereo unspecified) | inactive | – |
| CCOc1ccc(CNC(=O)CSc2nnc(C)c3c(C)n(-c4ccc(Cl)cc4)nc23)cc1 | inconclusive: 10.3 µM [inhibitor, partial curve] | – |
| O=C1CC[C@@H](CN(Cc2ccccn2)Cc2nc(Cc3ccccc3)no2)N1 | inactive | – |
| c1cncc(-c2nc(NCc3cccs3)c3ccccc3n2)c1 | inactive and inconclusive: 25.9 µM [inhibitor, single point] | – |
| CCC(CC)c1nnc(NC(=O)CS(=O)(=O)Cc2ccccc2)s1 | inactive | – |
| c1ccc2oc(-c3[nH]ncc3CN(Cc3ccncc3)CC3CCCO3)cc2c1 (stereo unspecified) | inconclusive: 29.1 µM [inhibitor, single point] | – |
| COc1c(C)cccc1C(=O)NCc1ccc2c(c1)OCO2 | inactive | – |
| CC1CCCCC1NCC#CCOc1ccc(Cl)cc1 (stereo unspecified) | inconclusive: 18.4 µM [inhibitor, single point] | – |
| CC1CC(=O)NN=C1c1ccc(NCCO)c([N+](=O)[O-])c1 (stereo unspecified) | inactive | – |
| O=C(O)c1ccc(/C=N\Nc2ccc(S(=O)(=O)N3CCOCC3)cc2[N+](=O)[O-])cc1 | inactive | – |
| COc1ccc(/C=C/C(=O)c2ccc(C(=O)/C=C/c3ccc(OC)c(OC)c3)cc2)cc1OC | active: 7.31 µM | – |
| CCCCN(C(=O)c1cnc(C)cn1)c1c(N)n(CCC)c(=O)[nH]c1=O | inconclusive: 0.0058 µM [inhibitor, full curve, poor fit] | – |
| COc1cc2[nH]c(=O)n(CCCC(=O)NCCc3ccccc3)c(=O)c2cc1OC | inactive | – |
| CC(C)C[C@@H](COCc1ccc(C(F)(F)F)cc1)N1CCN(C(=O)c2ccc(C(F)(F)F)cc2)CCC1=O | inconclusive: 29.1 µM [inhibitor, single point] | – |
| CCN(CC)c1ccc(C(=O)N/N=C(\C)c2cccnc2)cc1 | inactive | – |
| Cc1nc(NC(=O)c2ccc(F)cc2)sc1C(=O)Nc1ccc2c(c1)CCC2 | inconclusive: 29.1 µM [inhibitor, single point] | – |
| CC1(C(=O)Nc2ccc3c(c2)OCO3)CCN1Cc1ccccc1OC(F)F (stereo unspecified) | inconclusive: 29.1 µM [inhibitor, single point] | – |
| CO/N=C/c1ccc(N2CCN(C(=O)c3ccc(C)cc3)CC2)c([N+](=O)[O-])c1 | active: 18.4 µM | – |
| CCOc1ccc(OCC)c(-c2c(=O)n(OCc3ccccc3Br)c3ccccc3[n+]2[O-])c1 | active: 10 µM | – |
| Cc1c(C(=O)N2CCC(C)CC2)c(S(=O)(=O)N(Cc2ccccc2)C(C)(C)C)c(C)n1C | inconclusive: 18.4 µM [inhibitor, single point] | – |
| COc1ccc(N2CCN(C(=O)C3CCN(S(=O)(=O)N4CCOCC4)CC3)CC2)cc1 | inconclusive: 18.4 µM [inhibitor, single point] | – |

| SMILES | Potency | activity change, negative = growth inhibition |
| --- | --- | --- |
| CN=C1SC(CC(=O)Nc2ccc(F)cc2F)C(=O)N1/N=C/c1ccc(OC(F)F)c(OC)c1 (stereo unspecified) | inconclusive: 29.1 µM [inhibitor, single point] | – |
| Cc1cc(NC(=O)CSc2nc3ccsc3c(=O)n2CCCC(=O)NCCc2ccccc2)no1 | inconclusive: 29.1 µM [inhibitor, single point] | – |
| CS(=O)(=O)N1CCC2(CC1)CN(Cc1ccc(C#N)cc1)C2 | inactive | – |
| C/C(=N\N1C(=O)c2ccccc2NC1c1ccccc1)c1ccccc1O (stereo unspecified) | active: 4.61 µM | – |
| COc1ccc(C2=NN(C(=O)CSc3nc4ccccc4s3)C(c3ccc(F)cc3)C2)cc1 (stereo unspecified) | active: 20.6 µM | – |
| CCCS(=O)(=O)N1CCCC(C(=O)NCCCN2CCN(c3ccc(F)cc3)CC2)C1 (stereo unspecified) | inconclusive: 16.4 µM [inhibitor, single point] | – |
| COc1ccccc1NC(=S)Nc1ccccc1F | inconclusive: 10.3 µM [inhibitor, single point] | – |
| CN1CCN(C(=O)C(=O)Nc2c3c(nn2-c2ccc(Cl)cc2)CSC3)CC1 | inactive | – |
| COCCC1CCCCN1C(=O)c1cc(COc2ccc(-n3cncn3)cc2)on1 (stereo unspecified) | active: 5.17 µM | – |
| N#Cc1nc(-c2ccccc2)cc(-c2ccccc2)n1 | inconclusive: 3.55 µM [inhibitor, partial curve] | – |
| O=C(Nc1ccn(Cc2c(F)c(F)cc(F)c2F)n1)c1ccc(COc2cc(Cl)ccc2Cl)o1 | inconclusive: 20.6 µM [inhibitor, single point] | – |
| Cc1cc(-c2nn(-c3ccccc3F)cc2CN2CCN(c3ccncc3)CC2)c(C)s1 | inconclusive: 16.4 µM [inhibitor, single point] | – |
| O=[N+]([O-])c1ccc(Cl)cc1CN1CCCCCC1 | inconclusive: 20.6 µM [inhibitor, single point] | – |
| O=C(Nc1nc(-c2nc3ccccc3s2)cs1)C1CC1 | inconclusive: 16.4 µM [inhibitor, single point] | – |
| Cn1c(=O)c(C(=O)O)nn(-c2ccccc2)c1=O | inconclusive: 25.9 µM [inhibitor, single point] | – |
| CCOC(=O)c1[nH]c(C)c(C(=O)N2CCN(c3ccc(F)cc3)CC2)c1C | inconclusive: 13 µM [inhibitor, partial curve, poor fit] | – |
| Cc1ccc(N2C(=O)CCSC23C(=O)N(Cc2ccccc2)c2ccccc23)cc1 (stereo unspecified) | inconclusive: 18.4 µM [inhibitor, single point] | – |
| CCOC(=O)c1[nH]c2cc(OC)c(OC)cc2c1NC(=O)C(C)N1CCN(Cc2ccccc2)CC1 (stereo unspecified) | inconclusive: 16.4 µM [inhibitor, partial curve] | – |
| Cc1ccc(NC(=S)NNC(=O)c2ccccc2OC(F)F)cc1 | inconclusive: 29.1 µM [inhibitor, single point] | – |
| CCN(CC)C(=O)c1ccc2c(c1)N(Cc1ccc(C(F)(F)F)cc1)C(=O)c1ccccc1S2 | active: 16.4 µM | – |
| CCOCCCn1c(=N)c(C(=O)NCc2cccnc2)cc2c(=O)n3ccccc3nc21 | inactive | – |
| O=C1CN(C(=O)COC(=O)Cc2ccccc2F)c2ccccc2N1 | inactive | – |
| O=c1ccc(-c2ccccc2)nn1Cc1ccc(Cl)cc1 | inconclusive: 16.4 µM [inhibitor, single point] | – |
| COc1cccc(CNC(=O)CSC2=Nc3ccccc3N=C(c3ccc(F)cc3)C2)c1 | active: 20.6 µM | – |

| SMILES | Potency | activity change, negative = growth inhibition |
| --- | --- | --- |
| O=C(CSc1nnc(COc2ccc(Br)cc2)o1)N1CCOCC1 | inactive | – |
| COc1ccc(C(=O)N2CCN(c3nc4cc(C)ccc4cc3C#N)CC2)c(OC)c1 | active: 16.4 µM | – |
| COc1ccc(OC)c(S(=O)(=O)n2cnc3ccccc32)c1 | inconclusive: 16.4 µM [inhibitor, single point] | – |
| COCc1ccc(C(=O)N2CCCC(C(=O)c3ccc(SC)cc3)C2)o1 (stereo unspecified) | inconclusive: 29.1 µM [inhibitor, single point] | – |
| CCn1nc(NS(=O)(=O)c2ccccc2)c2cc3cccc(C)c3nc21 | – | inconclusive: -30.5% [inhibitor] |
| O=C(NCc1ccccc1Cl)c1ccc(CS(=O)(=O)c2ccc(Br)cc2)o1 | active: 23.1 µM | – |
| CCOC(=O)C1CCN(C(=O)Cn2nc(CC)n3c(cc4sccc43)c2=O)CC1 | inconclusive: 20.6 µM [inhibitor, single point] | – |
| CCc1c(-c2n[nH]c(=S)n2Cc2ccccc2)csc1C | active: 5.8 µM | – |
| Cc1nc(NC(=O)C2CC2)sc1C(=O)Nc1ccc(Br)cc1 | inconclusive: 29.1 µM [inhibitor, single point] | – |
| Cc1ccc(S(=O)(=O)N[C@H](C(=O)N2CCC(C(=O)N[C@@H](CC(=O)O)C(=O)O)CC2)C(C)C)cc1 | inactive | – |
| S=C(NCCc1ccccc1)Nc1ccccn1 | active: 6.51 µM | – |
| CCCCCC(=O)Nc1cccc(C2=NOC3(C2)C[C@H](C(N)=O)N(C(=O)CCCCC)C3)c1 (stereo partly specified) | inconclusive: 29.1 µM [inhibitor, single point] | – |
| CC(C)(C)c1ccc(C2CC2C(=O)N/N=C\c2ccc[nH]2)cc1 (stereo unspecified) | inconclusive: 20.6 µM [inhibitor, single point] | – |
| COc1ccc(Nc2ncnc3sc4c(c23)CCCC4)cc1 | active: 3.26 µM | – |
| COc1ccc(C(=O)N(C)Cc2ccon2)cc1OC1CCN(C(C)C)CC1 | inactive | – |
| CC(C)OCCCNC(=O)Cn1ncc2c(=O)oc3ccccc3c21 | inactive | – |
| Cn1nnnc1SCCCNCc1ccccc1OCc1ccc(Cl)cc1 | active: 18.4 µM | – |
| Cc1ccc(C(=O)NNc2nc3ccccc3nc2C(F)(F)F)cc1 | inconclusive: 18.4 µM [inhibitor, single point] | – |
| Cc1c(CNC2CCCCC2)c(C(=O)O)c(C)n1Cc1ccc(Cl)cc1 | inconclusive: 11.6 µM [inhibitor, partial curve] | – |
| CCN(CC)S(=O)(=O)c1ccc2c(c1)N(CC(=O)N1CCN(c3cccc(C)c3C)CC1)C(=O)CO2 | active: 18.4 µM | – |
| Cc1cc(C)c(NC(=O)Cn2c(=O)n(CCC(=O)N3CCc4ccccc4C3)c(=O)c3ccccc32)c(C)c1 | active: 13 µM | – |
| CCC1CCCCN1C(=S)NC(=O)c1cccc([N+](=O)[O-])c1 (stereo unspecified) | inconclusive: 23.1 µM [inhibitor, single point] | – |
| COc1ccc(/C=C/C(=O)Nc2ccc(-n3nncc3-c3ccc(OC)c(OC)c3)cc2)cc1OC | inconclusive: 29.1 µM [inhibitor, single point] | – |
